Measured values taken from PubChem BioAssay AID360 (National Center for Advancing Translational Sciences (NCATS), 2006).
The campaign covered roughly 48,000 compounds. About 550 (1.1%) were called active. Another 4% or so got no clear call; they are omitted. Cut-off read from the data, not from the text of the source: active = potency below about 15 µM; inconclusive = mostly about 16 µM to 33 µM; inactive = weaker than that. This is one part of the list.

target: Lysosomal acid glucosylceramidase (Homo sapiens) (UniProt P04062); assay: Glucocerebrosidase; conditions: purified enzyme, resorufin glucoside fluorescence (screen aimed at inhibitors), 20 min;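 note: the screen sought inhibitors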
Procedure, shortened: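 Normal human glucocerebrosidase (0.2 nM final) was assayed with resorufin β-D-glucopyranoside (30 uM final) in 50mM citric acid/KH2PO4, 10mM sodium taurocholate, 0.01% tween-20, pH 5.9. Compounds were titrated; fluorescence (Ex 548, Em 600) read after 20 min at RT.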
Potency is the fitted concentration of half-maximal effect.

UniProt P04062, sequence (P04062 whole entry, looked up): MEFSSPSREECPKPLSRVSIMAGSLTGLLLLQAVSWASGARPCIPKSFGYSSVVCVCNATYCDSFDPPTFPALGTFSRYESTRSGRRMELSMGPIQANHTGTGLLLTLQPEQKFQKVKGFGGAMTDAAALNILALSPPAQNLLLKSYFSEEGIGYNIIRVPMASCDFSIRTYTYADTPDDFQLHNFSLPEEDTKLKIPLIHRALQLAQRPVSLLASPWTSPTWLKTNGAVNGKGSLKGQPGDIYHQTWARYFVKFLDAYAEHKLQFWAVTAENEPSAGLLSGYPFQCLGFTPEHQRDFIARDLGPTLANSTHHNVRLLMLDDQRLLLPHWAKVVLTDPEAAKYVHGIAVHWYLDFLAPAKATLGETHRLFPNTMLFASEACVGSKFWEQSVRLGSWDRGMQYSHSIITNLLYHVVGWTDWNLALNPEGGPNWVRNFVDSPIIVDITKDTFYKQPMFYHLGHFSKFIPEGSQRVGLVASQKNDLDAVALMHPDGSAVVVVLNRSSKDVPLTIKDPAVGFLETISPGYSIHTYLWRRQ

Potency, inactive:
CCCC1(C(=O)OC)NC(c2ccc(OC)c(OC)c2)C2C(=O)N(c3ccc4c(c3)OCO4)C(=O)C21 (stereo not drawn) > 76.9 µM
CC1CN(CCc2ccccc2)c2nc3c(c(=O)[nH]c(=O)n3C)n2C1 (stereo not drawn) > 76.9 µM
CC(OC(=O)c1nn(C)c(=O)c2ccccc12)C(=O)NCc1ccc2c(c1)OCO2 (stereo not drawn) > 76.9 µM
Nc1ccc(C(=O)OCc2nc3ccccc3[nH]2)cc1 > 76.9 µM
O=C1CCCC2=C1C(c1cccs1)n1ncnc1N2 (stereo not drawn) > 76.9 µM
O=C(CSc1nc2ccccc2c(=O)n1CC1CCCO1)NCC1CCCO1 (stereo not drawn) > 76.9 µM
CN1CCN(c2ccc(NC(=O)c3ccc4c(c3)OCO4)cc2)CC1 > 76.9 µM
O=C(NCN1CCCCC1)c1cnccn1 > 76.9 µM
CCn1c(=Nc2ccc(N3CCOCC3)cc2)ccc2ccccc21 > 76.9 µM
C=C(C)c1cccc(C(C)(C)NC(=O)Nc2ccc3[nH]c(=O)[nH]c3c2)c1
CCOc1ccc(NC(=O)C(CC)NC(=O)c2ccccc2CO)cc1 (stereo not drawn) > 76.9 µM
CCN1C(=O)/C(=C2/SC(C)=C(C)N2CC)SC1=S > 76.9 µM
O=c1cc(CO)oc(C(Nc2ccccn2)c2ccsc2)c1O (stereo not drawn) > 76.9 µM
COC(=O)c1[nH]c2cccc(C)c2c1NC(=O)CN1CCN(c2ccccc2OC)CC1 > 76.9 µM
CC(=O)Nc1c(C(=O)C2CC2)oc2ccccc12 > 76.9 µM
C(=C\c1ccco1)/C=N/n1cnnc1 > 76.9 µM
COC1(OC)N=C(N)C2(C#N)C(c3ccc(F)cc3)C12C#N (stereo not drawn) > 76.9 µM
CC1=C(C(=O)OC2CCCCC2)C(c2cccnc2)n2ncnc2N1 (stereo not drawn) > 76.9 µM
CCOC(=O)C1CCN(C(=O)c2cc3cc4cc(OC)ccc4nc3o2)CC1 > 76.9 µM
N=c1c(C(=O)NCc2ccco2)cc2c(=O)n3ccccc3nc2n1Cc1ccccc1 > 76.9 µM
CC(=O)N1CCN(c2ccc(NC(=O)c3ccc4c(c3)OCO4)cc2)CC1
COc1cc(NC(=O)c2ccco2)c(OC)cc1NC(=O)CSc1ncc(-c2ccc(F)cc2)[nH]1 > 76.9 µM
O=C(c1cc(-c2ccccc2)nc2ccccc12)N1CCN(c2ccccn2)CC1 > 76.9 µM
CC(=O)Nc1c(C(=O)O)oc2ccccc12 > 76.9 µM
CCS(=O)(=O)N1CCCC(C(=O)NC2CCC(C)CC2)C1 (stereo not drawn) > 76.9 µM
O=C(OCC(=O)N1CCOCC1)c1ccc[nH]c1=O > 76.9 µM
COc1cc(C2C3C(=O)N(Cc4ccccc4)C(=O)C3ON2c2ccccc2)cc(OC)c1O (stereo not drawn) > 76.9 µM
CC1(C)CC(=O)C=C(N2CCN(C3=CC(=O)CC(C)(C)C3)CC2)C1 > 76.9 µM
O=C1N(CN2CCN(c3cccc(Cl)c3)CC2)c2ccccc2C12OCCCO2 > 76.9 µM
O=C(O)c1ccc(Cl)cc1NC(=O)C1CCCO1 (stereo not drawn) > 76.9 µM
Cn1c(=N)n(CC(=O)O)c2ccccc21 > 76.9 µM
O=C(c1cc(-c2ccc(Cl)c(Cl)c2)on1)N1CCN(c2ccccc2)CC1 > 76.9 µM
CCOc1ccc(-c2c(C#N)c(N)nc3c2c(=O)n(C)c(=O)n3C)cc1OC > 76.9 µM
COc1ccc(CCNC(=O)c2cc(-c3ccc4c(c3)OCO4)on2)cc1OC > 76.9 µM
CCc1nc(OCCN(CC)CC)c2oc3ccccc3c2n1 > 76.9 µM
CC(=O)Cn1c(CN2CC(C)CC(C)C2)nc2c1c(=O)n(C)c(=O)n2C (stereo not drawn) > 76.9 µM
O=C(CNS(=O)(=O)c1cccs1)N1CCN(c2ccccn2)CC1 > 76.9 µM
O=C(CSc1ncn(-c2ccccc2)n1)Nc1nc2c(s1)CCCC2 > 76.9 µM
O=C(Nc1ccc2oc(-c3ccncc3)nc2c1)c1ccccc1F > 76.9 µM
CCN1C(=O)c2cccc3c(NC(=O)C4CCCCC4)ccc1c23 > 76.9 µM
O=C(CCc1ccccc1)OCCN1CCOCC1 > 76.9 µM
O=C(COc1ncnc2ccccc12)NCCCN1CCCC1=O > 76.9 µM
CCCC(=O)Nc1ccccc1NC(=O)CN(C)S(=O)(=O)c1ccccc1 > 76.9 µM
NC(=O)c1nsc(C(=O)N(CC(=O)NCc2ccc3c(c2)OCO3)C2CCCC2)c1N > 76.9 µM
O=C(CN1CCN(Cc2ccccc2)CC1)NC(=O)NCc1ccco1 > 76.9 µM
c1ccc2[nH]c(NCCN3CCOCC3)nc2c1 > 76.9 µM
O=C(NCC1CCCO1)C1CC(=O)N(C2CCCCCC2)C1 (stereo not drawn) > 76.9 µM
O=C(CCc1nc(-c2ccccc2)no1)NCc1ccco1 > 76.9 µM
C=C(C)CN1C(=O)C(O)(CC(=O)c2ccc3c(c2)OCCO3)c2ccccc21 (stereo not drawn) > 76.9 µM
COC(=O)Cn1cc(C(=O)C2CC2)c2ccccc21 > 76.9 µM
Cc1nc2ccccc2c(=O)n1NC(=O)C1CCCCC1 > 76.9 µM
O=C(c1cn(CC(=O)N2CCCC2)c2ccccc12)C1CCCCC1 > 76.9 µM
CCOc1cc(-c2ccc(N)c(OCC)c2)ccc1N > 76.9 µM
O=C(CCCCCN1C(=O)CCC1=O)Nc1ccc2c(c1)OCCO2 > 76.9 µM
CN(Cc1cccs1)CC(O)COCc1ccco1 (stereo not drawn) > 76.9 µM
COc1ccc(F)cc1S(=O)(=O)N1CCN(Cc2ccc3c(c2)OCO3)CC1 > 76.9 µM
Cc1ccc(NC(=O)CS(=O)CC(=O)Nc2ccc3c(c2)OCO3)cc1Cl (stereo not drawn) > 76.9 µM
Cc1nn(-c2nc3ccccc3s2)c(N)c1-c1ccccc1 > 76.9 µM
